# Measurements from PubChem BioAssay (Tox21).
# Where “and” joins values, the source holds several entries; their conditions need not be identical. Identical values can stand only once. Inconclusive means that the source gave no clear call. Such entries were picked first, then a sample of the others. For part of these data: Where the call is inconclusive, the potency comes from a doubtful curve fit. Calls of active or inactive are those of the source. The call rests on the fitted dose curve; in most records, active means well fitted curve in the direction sought with a large enough effect in the repeat runs; inconclusive means weak or mixed curves; inactive means no such curve, though single readings can be large; an effect the other way counts as inactive or inconclusive.
# Legend:
# [1] = qHTS RealTime-Glo MT Cell Viability Assay in HepG2 cells - 16 hour (AID 1224885); settings: RealTime-Glo luminescence; series mostly up to 76.8 µM; further: nearly all actives have a fitted effect of over 50% in size; further: potency means the concentration at half of the fitted maximal effect
# Outline: (§1)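 HepG2 cells (600/well) were dispensed with RealTime-Glo reagents, incubated 5 h at 37 °C, then treated with compounds in DMSO for up to 40 h. Nonlytic NanoLuc luminescence reflecting viable cells was read at each stated time point.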
# [2] = qHTS RealTime-Glo MT Cell Viability Assay in HEK293 cells - 24 hour (AID 1224886); settings: RealTime-Glo luminescence; series mostly up to 76.8 µM; further: potency means the concentration at half of the fitted maximal effect; nearly all actives have a fitted effect of over 50% in size
# Outline: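 HEK293 cells seeded with NanoLuc/prosubstrate reagent, rested 5 h at 37 C, then dosed and kept at 37 C up to 40 h. Nonlytic real-time luminescence from viable cells read at 0, 8, 16, 24, 32 and 40 h.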
# [3] = qHTS RealTime-Glo MT Cell Viability Assay in HEK293 cells - 8 hour (AID 1224887); settings: RealTime-Glo luminescence; series mostly up to 76.8 µM; further: potency means the concentration at half of the fitted maximal effect; nearly all actives have a fitted effect of over 50% in size
# Outline: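 Nonlytic bioluminescent viability monitoring. HEK293 at 600 cells/well with reagent; 5 h settle; compound transfer by pintool; plates held at 37 C and read at set time points.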
# [4] = A CellTox Green Cytotoxicity Assay to monitor cytotoxicity in HepG2 cells - 8 hour (AID 1224890); settings: CellTox Green fluorescence; series mostly up to 76.8 µM; further: nearly all actives have a fitted effect of over 45% in size; further: potency means the concentration at half of the fitted maximal effect
# Outline: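 Real-time, homogeneous cytotoxicity readout: dead-cell DNA staining by CellTox Green in HepG2 monolayers, fluorescence measured at timed intervals up to 40 h of continuous compound exposure.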
# [5] = qHTS assay to identify small molecule antagonists of the estrogen receptor alpha (ER-alpha) signaling pathway using the BG1 cell line in the presence of 0.1 nM 17-beta-estradiol - cell viability counter screen (AID 1259241); settings: VM7Luc4E2 (BG1) viability, CellTiter-Fluor protease, 22 h, 0.1 nM estradiol agonist added; series mostly up to 92.4 µM; further: potency means the concentration at half of the fitted maximal effect; nearly all actives have a fitted effect of over 40% in size
# Outline: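 Cytotoxicity counter-screen: live-cell protease activity measured by fluorescence (30 min reagent step) in the same wells. Cells were VM7Luc4E2 with endogenous ER-alpha and ERE-driven luciferase, treated 22 hr at 37C alongside 0.1 nM 17beta-estradiol final.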
# [6] = A CellTox Green Cytotoxicity Assay to monitor cytotoxicity in HEK293 cells - 16 hour (AID 1224888); settings: CellTox Green fluorescence; series mostly up to 76.8 µM; further: nearly all actives have a fitted effect of over 35% in size
# Outline: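 Cytotoxicity was tracked continuously in HEK293 cells by a DNA-binding dye excluded from viable cells. Compounds were transferred in DMSO 5 h after seeding; fluorescence was recorded at intervals up to 40 h.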
# [7] = qHTS RealTime-Glo MT Cell Viability Assay in HepG2 cells - 0 hour (AID 1224889); settings: RealTime-Glo luminescence; series mostly up to 76.8 µM; further: potency means the concentration at half of the fitted maximal effect; nearly all actives have a fitted effect of over 50% in size
# Outline: as §1
# Tags describe the fitted curve by direction and shape.
smiles,measurement,setting,value
CCCCCCCCCCCCCCCC[N+](C)(C)CCN(Cc1ccc(OC)cc1)c1ncccn1,Potency,[1],active: 8.49 µM
same,Potency,[2],active: 1.07 µM
same,Potency,[3],active: 2.13 µM
same,Potency,[4],active: 19 µM
Oc1cccc(-c2c3nc(c(-c4cccc(O)c4)c4ccc([nH]4)c(-c4cccc(O)c4)c4nc(c(-c5cccc(O)c5)c5ccc2[nH]5)CC4)C=C3)c1,Potency,[1],"inconclusive: 26.8 µM [cytotoxic, partial curve, poor fit]"
CC(C)C[C@H](NC(=O)[C@H](CCc1ccccc1)NC(=O)CN1CCOCC1)C(=O)N[C@@H](Cc1ccccc1)C(=O)N[C@@H](CC(C)C)C(=O)[C@@]1(C)CO1,Potency,[1],"inconclusive: 4.25 µM [cytotoxic, partial curve]"
O=C(/C=C/c1ccccc1)OCCc1ccccc1,Potency,[1],inactive
CCCCCCCCN,Potency,[1],inactive
O=S(=O)(O)c1cc(S(=O)(=O)O)c2c(N=Nc3ccccc3)c(O)ccc2c1,Potency,[1],"inconclusive: 43.6 µM [cytotoxic, partial curve, poor fit]"
same,Potency,[2],"inconclusive: 55.2 µM [cytotoxic, single point]"
same,Potency,[3],"inconclusive: 49.2 µM [cytotoxic, single point]"
same,Potency,[5],"inconclusive: 48.8 µM [cytotoxic, partial curve] and inconclusive: 34.4 µM [cytotoxic, partial curve]"
CCOC(=O)Cn1cccc1-c1nc(-c2ccc(OC)cc2)c(-c2ccc(OC)cc2)s1,Potency,[1],"inconclusive: 21.3 µM [cytotoxic, partial curve, poor fit]"
C[C@@]12C(=O)OC(=O)[C@]1(C)C1CCC2O1,Potency,[1],"inconclusive: 9.52 µM [cytotoxic, partial curve]"
same,Potency,[2],active: 6.74 µM
same,Potency,[3],"inconclusive: 10.7 µM [cytotoxic, full curve]"
same,Potency,[5],"inconclusive: 5.96 µM [cytotoxic, partial curve]"
Nc1cc(S(=O)(=O)O)cc2cc(S(=O)(=O)O)cc(O)c12,Potency,[1],"inconclusive: 24.5 µM [cytotoxic, partial curve, poor fit]"
same,Potency,[2],"inconclusive: 21.9 µM [cytotoxic, partial curve]"
same,Potency,[3],"inconclusive: 21.8 µM [cytotoxic, partial curve, poor fit] and inconclusive: 21.9 µM [cytotoxic, partial curve]"
same,Potency,[6],inactive
same,Potency,[5],"inconclusive: 43.1 µM [cytotoxic, partial curve] and active: 27.3 µM"
C=C(C)C(=O)OCCCCCCCCCCCCC,Potency,[1],inactive
CN1CCN(C2=Nc3cc(Cl)ccc3Nc3ccccc32)CC1,Potency,[1],"inconclusive: 26.8 µM [cytotoxic, partial curve, poor fit]"
same,Potency,[2],"inconclusive: 16.9 µM [cytotoxic, partial curve]"
Cc1ccco1,Potency,[1],inactive
CC(C)=CCC/C(C)=C/CC/C(C)=C/C(=O)OCC(=O)[C@@]1(O)CC[C@H]2[C@@H]3CCC4=CC(=O)C=C[C@]4(C)[C@H]3[C@@H](O)C[C@@]21C,Potency,[1],"inconclusive: 21.3 µM [cytotoxic, single point]"
same,Potency,[2],active: 4.25 µM
same,Potency,[3],active: 6.01 µM
same,Potency,[4],inactive
same,Potency,[5],"inconclusive: 33.5 µM [cytotoxic, single point]"
O=C(O)Cn1c(=O)n(Cc2ccc(Br)cc2F)c(=O)c2ccc(Cl)cc21,Potency,[1],"inconclusive: 9.52 µM [cytotoxic, partial curve]"
same,Potency,[2],"inconclusive: 24.5 µM [cytotoxic, partial curve] and inconclusive: 23.9 µM [cytotoxic, partial curve, poor fit]"
same,Potency,[3],"inconclusive: 9.77 µM [cytotoxic, partial curve, poor fit] and inconclusive: 23.9 µM [cytotoxic, partial curve, poor fit]"
same,Potency,[4],inactive
CC(=O)NC1(c2cccc(F)c2)CCN(CC[C@@]2(c3ccc(Cl)c(Cl)c3)CN(c3ccccc3)C(=O)CO2)CC1,Potency,[1],active: 43.8 µM
same,Potency,[2],active: 17.4 µM
NCCNCCO,Potency,[1],inactive
CN(C)c1ccc(N=NS(=O)(=O)O)cc1,Potency,[1],"inconclusive: 41 µM [cytotoxic, partial curve, poor fit]"
same,Potency,[2],"inconclusive: 24.5 µM [cytotoxic, full curve]"
same,Potency,[3],active: 34.5 µM
same,Potency,[7],"inconclusive: 57.9 µM [cytotoxic, partial curve, poor fit]"
